Reference: PubChem BioAssay AID1671194 (National Center for Advancing Translational Sciences (NCATS), 2021)
Screen size: about 140,000 compounds; about 240 (0.17%) were called active. Inconclusive results, whose numbers are uncertain, are shown with a selection of clear calls. Calls come from the whole dose curve; as a rule, active = well fitted inhibition curve with a large enough effect; inconclusive = small, poorly fitted or top-dose-only effect; inactive = no such curve, though single readings can be large or run the other way. A potency beside an inconclusive call is a rough fit, not a confirmed value.

Test: Primary qHTS assay for inhibitors of alpha-synuclein gene (SNCA) expression; note: nearly all actives have a fitted effect of over 45% in size;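 for activity change, negative = inhibition: plate controls were DMSO cells for no effect and cell-free wells for full effect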
Conditions: HEK-293 SNCA-luciferase knock-in, luminescence, 24 h; activity change, negative = inhibition: at 57.2 µM (top of the series) unless noted
Potency is the fitted concentration of half-maximal effect; tags give direction and shape of the fitted curve.

Potency, inconclusive:
Cc1nc(C2CC(O)C2)cc(N2CCN(c3nc4ccccc4s3)CC2)n1 (stereo not drawn) 0.708 µM [inhibitor, single point], COCc1cn(C[C@H]2C[C@@H](NC(=O)NC3CCCC3)[C@H](O)[C@@H]2O)nn1 11.2 µM [inhibitor, single point], Cc1cc(Cl)ccc1S(=O)(=O)N1CCCC(Cn2c(C)nc3cccnc32)C1 (stereo not drawn) 39.8 µM [inhibitor, single point], O=C(Nc1ccc(F)c(Cl)c1)N1CCC(Oc2ncccc2C(=O)N2CCOCC2)C1 (stereo not drawn) 8.91 µM [inhibitor, single point], O=C(Cc1ccsc1)N[C@@H]1COCC[C@@H]1OCc1cscn1 8.91 µM [inhibitor, single point], COc1ccc2[nH]c3c(c2c1)CCNC31CCN(C(=O)c2sccc2C)CC1 39.8 µM [inhibitor, single point], CCOc1ccccc1CN1CCC2(CCN(C(=O)c3cccc(Cl)c3)CC2)Oc2ccccc21 39.8 µM [inhibitor, single point], O=C(Cc1cccs1)NC1CCCc2c1[nH]c1c(Cl)cccc21 (stereo not drawn) 39.8 µM [inhibitor, single point], COc1ccc(-n2nnnc2C2CCN(S(=O)(=O)c3ccc(C)cc3)CC2)cc1 2.82 µM [inhibitor, single point], COc1cccc(-c2noc(CC3CCN(C(=O)c4cc(Cl)ccc4F)CC3)n2)c1 7.94 µM [inhibitor, full curve], Cc1ccc(-c2c(C(=O)NCCc3ccccc3)oc(=O)c3ccccc23)cc1 25.1 µM [inhibitor, single point], Cc1cccc(N2CCN(C(=O)c3ccc4c(c3)N(Cc3cccc(Cl)c3)C(=O)c3ccccc3S4=O)CC2C)c1 (stereo not drawn) 25.1 µM [inhibitor, partial curve, poor fit], COc1ccc2[nH]c3c(c2c1)CCNC31CCN(C(=O)c2ccoc2)CC1 39.8 µM [inhibitor, single point], Cc1cccc(CS(=O)(=O)Cc2ccc(C(=O)NCCc3ccccc3)o2)c1 2.51 µM [inhibitor, single point], Nc1cc(=O)[nH]c(N)n1 3.55 µM [inhibitor, full curve], Cc1nc2nc(SCC(=O)NC3CCC(C)CC3)nn2c(C)c1Cc1ccccc1 (stereo not drawn) 39.8 µM [inhibitor, single point], Cc1cc(C(=O)N2CCc3c(nc(C)nc3N(C)C)C2)c2cccc(C)c2n1 39.8 µM [inhibitor, single point], CCOC(=O)c1ccc(N2C(=O)c3n[nH]c(C)c3C2c2ccc(OCC)cc2)cc1 (stereo not drawn) 11.2 µM [inhibitor, partial curve, poor fit], Cc1[nH]c2ccccc2c1CC(=O)NC1CCCN(c2ncccn2)C1 (stereo not drawn) 1.41 µM [inhibitor, full curve], COc1cccc(Cn2c(CNS(=O)(=O)c3ccc(C(C)(C)C)cc3)nc3cccnc32)c1 20 µM [inhibitor, partial curve, poor fit], CC(C)n1cc(C(=O)N2CC[C@H](N3CCOCC3)[C@H](CCC(=O)O)C2)cn1 22.4 µM [inhibitor, partial curve, poor fit], Cc1ccccc1-c1nn2c(=O)cc(CN3CCN(S(=O)(=O)c4ccc(Cl)cc4)CC3)nc2s1 2 µM [inhibitor, single point], CNC(=O)N1CCC(C2CCN(C(=O)c3cc(C)n(CCOC)c3C)C2)CC1 (stereo not drawn) 39.8 µM [inhibitor, single point], COc1cc(OC)cc(C(=O)Nc2ccc3nc(Nc4cccc(C(F)(F)F)c4)cc(C)c3c2)c1 12.6 µM [inhibitor, partial curve, poor fit], Cc1[nH]c2ccccc2c1C1(O)C(=O)N(Cc2ccccc2Cl)c2ccccc21 (stereo not drawn) 39.8 µM [inhibitor, single point], CCC1CN(C(=O)Nc2ccc(Br)cc2F)c2ccccc2S1 (stereo not drawn) 7.08 µM [inhibitor, single point], Nc1nc(Cl)nc2c1ncn2[C@@H]1O[C@H](CO)[C@@H](O)[C@H]1F 0.0681 µM [inhibitor, full curve], Cc1ncc(-c2ccnc(Nc3ccc(S(C)(=O)=O)cc3)n2)n1C(C)C 3.04 µM [inhibitor, full curve], CC(=O)N1CCc2c(sc3c2c(=O)n(CCc2ccccc2)c(=O)n3CC(=O)Nc2ccc(C)c(F)c2)C1 39.8 µM [inhibitor, single point], COc1ccc(-c2noc(CC3CCN(C(=O)Cc4cccc(C)c4)CC3)n2)cc1 15.8 µM [inhibitor, partial curve, poor fit], CC(C)c1ccc(C2c3c(-c4ccccc4O)n[nH]c3C(=O)N2Cc2ccncc2)cc1 (stereo not drawn) 22.4 µM [inhibitor, single point], CCCCOC(=O)CSc1nnc(-c2ccc(C)cc2)o1 31.6 µM [inhibitor, partial curve, poor fit], Cc1noc(C)c1S(=O)(=O)N1C[C@@H](F)C[C@H]1C(=O)N1CCCCC1 39.8 µM [inhibitor, single point], O=C(c1ccnc2ccccc12)N1CCC2(CC1)Nc1ccccc1NC2=O 8.91 µM [inhibitor, partial curve, poor fit], CO[C@H]1[C@H](NC(=O)c2ccc(C)c(O)c2)c2ccccc2C12CCNCC2 22.4 µM [inhibitor, single point], Cn1ncc2c(C(=O)NCC(F)(F)F)cc(-c3ccc(Cl)cc3Cl)nc21 8.91 µM [inhibitor, partial curve, poor fit], Cc1ccc2c(c1)C(c1ccc(F)cc1)N(C(=O)COc1ccc(Cl)cc1Cl)CC(=O)N2 (stereo not drawn) 28.2 µM [inhibitor, single point], O=C(CSc1c2c(nc3ccc(Cl)cc13)CCCC2)N1CCN(c2cccc(Cl)c2)CC1 39.8 µM [inhibitor, single point], Cc1cccc(NC(=O)c2ccc(N(Cc3ccccc3)S(C)(=O)=O)cc2)c1 28.2 µM [inhibitor, partial curve, poor fit], c1ccc(-c2cc(CC3(NCC4CCCCC4)COC3)no2)cc1 56.2 µM [inhibitor, single point], COc1cc(-c2nnn(CC(=O)Nc3ccc(OC(F)(F)F)cc3)n2)cc(OC)c1OC 39.8 µM [inhibitor, single point]

Activity change, negative = inhibition, inactive:
O=C1C(N2CCN(S(=O)(=O)c3ccc(Cl)s3)CC2)CCN1Cc1ccccn1 (stereo not drawn) 11.2%, CCOC(=O)C(CC)Sc1c(CC)cnc2c1c(=O)n(C)c(=O)n2C (stereo not drawn) 22.2%, COCc1cc(CNc2nccc(-c3ccccn3)n2)[nH]n1 16.3%, COc1cccc(-c2cn3ncsc3n2)c1 -6.62%, O=C(CCc1nnn2c1CN(C(=O)NCCc1ccccc1)CC2)N1CCCC1 13.3%, COCCNc1ncccc1-c1cc(-c2ccccc2)nc2c(C)noc12 -17.8% [at 87.6 µM], O=C(NCCn1ccn2nc(-c3ccc(F)cc3)cc2c1=O)c1ccoc1 109%, O=C(CCc1ccccc1)N1CCC(Cc2nc(-c3ccc(F)cc3)no2)CC1 -23.3%, Cc1ccc(-c2cnc([C@@H]3COCCN3Cc3cn(C)c4ccccc34)[nH]2)cc1 -28.4% [at 87.6 µM], O=C(O)CCc1ccnc(N2CCCC2)c1 -8.86%, CCNC(=O)[C@@H]1CCCN1[C@@H](C(=O)NC)c1ccc(OC)cc1 2.34% [at 87.6 µM], O=C1NC(=NC2CCCCC2)C2(CCN(Cc3cccnc3)CC2)N1c1cccnc1 25%, O=C(NCC1CC1)c1ccc2nc(-c3ccccn3)oc2c1 -10.6% [at 87.6 µM], Cc1ccc2c(n1)N(C)[C@H](CO)CCN(Cc1ccccc1F)C2 5.77% [at 87.6 µM], COc1ccc(CN2CCCn3nc(C)c(-c4ccccc4C(C)C)c32)cc1O -27.2% [at 87.6 µM], CCOc1ccc(CN2CCN(c3nc4ccccc4o3)CC2CCO)cc1 (stereo not drawn) 5.08%, CCc1noc(-c2cccn3c(CNC(=O)c4cccc(N(C)C)c4)nnc23)n1 21.3%, CCO[C@H]1CN(C(=O)c2cn3cc(Cl)ccc3n2)C[C@@H]1O -2.03%, CN(C)C(=O)N1CCC(C(=O)N2CCC3(CC2)CC(=O)Nc2ccccc2O3)CC1 -7.94%, COc1ccc(C(O)Cn2ccn3nc(-c4ccc(C(C)C)cc4)cc3c2=O)cc1 (stereo not drawn) 50.3%, COc1ccc(-c2nccn3cc(C(=O)NCCN4CCCCC4)nc23)cc1 11.9%, CCC(=O)N1CCc2c(sc3ncnc(NCc4ccccn4)c23)C1 36.7%, COc1ccccc1CNC(=O)CNC(=O)c1cccc(-c2ccc(C(F)(F)F)cc2)c1 -5.91%, COCc1ccc2c(c1)c(OC(C)(C)C(=O)NCC1CCOCC1)nn2Cc1cccnc1 23%, O=C(c1ccoc1)N1CC(Oc2cccc(-c3nc(-c4ccccc4)no3)c2)C1 32.3%, Cc1cc(F)ccc1NC(=O)C1CCN(C(=O)c2ncn3c2COC(c2ccc(F)cc2)C3)CC1 (stereo not drawn) 2.86%, O=C(NCCc1ccccc1)c1cc(-c2ccsc2)c2nncn2n1 10.4%
